Measurements reported in PubChem BioAssay AID894 (National Center for Advancing Translational Sciences (NCATS), 2007).
Hit rate of the full screen: of about 150,000 compounds, about 6,500 (4.3%) were called active. The inconclusive results got no clear call from the source; some entries with a clear call stand among them for comparison. Calls come from the whole dose curve; as a rule, active = well fitted inhibition curve with a large enough effect (not every such curve was filed as active); inconclusive = small, poorly fitted or top-dose-only effect, or another doubt; inactive = no such curve, though single readings can be large or run the other way. No potency is given beside an inconclusive call; the fits are too rough.

Molecular target: 15-hydroxyprostaglandin dehydrogenase [NAD(+)] (Homo sapiens) (UniProt P15428)
UniProt P15428, sequence (P15428 whole entry, looked up): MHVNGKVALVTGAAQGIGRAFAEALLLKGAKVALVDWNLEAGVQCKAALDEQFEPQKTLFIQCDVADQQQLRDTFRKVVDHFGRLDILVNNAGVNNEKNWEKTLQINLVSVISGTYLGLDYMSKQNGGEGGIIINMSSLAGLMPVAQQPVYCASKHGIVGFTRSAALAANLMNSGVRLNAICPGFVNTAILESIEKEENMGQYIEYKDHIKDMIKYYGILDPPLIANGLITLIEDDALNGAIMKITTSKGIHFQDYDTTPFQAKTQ
Test: qHTS Assay for Inhibitors of HPGD (15-Hydroxyprostaglandin Dehydrogenase)
Details: purified HPGD, NADH fluorescence kinetic, PGE2 substrate; activity change, negative = inhibition: stronger effect = lower value
Summary of the method: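 20 nM HPGD preincubated 15 min at room temperature with compound in 50 mM Tris-HCl pH 8, 0.01% Tween 20. Started with 1 mM NAD+ and 30 uM prostaglandin E2; NADH fluorescence (360/450 nm) read 5 times over 30-s intervals, last minus first.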
% is set by controls: 0 for no effect and ±100 for the full control effect; potency is the fitted concentration of half-maximal effect; tags give direction and shape of the fitted curve.

Q: With `COc1ccc(-c2c3c(=O)n(C)c(=O)n(C)c3cn2NC(C)=O)cc1` as the compound, how does the Potency read?
A: inconclusive [inhibitor, single point]

Q: Which Potency does the source give for `Cc1ccc(C(=O)c2c[nH]c(C(=O)NCc3cccnc3)c2)cc1` here?
A: active: 25.1 µM

Q: Which activity change, negative = inhibition does the source give for `Cn1nnnc1SCCNCc1ccccc1OCc1ccc(Cl)cc1` here?
A: inactive: -19.6%

Q: Which Potency does the source give for `CCOC(=O)NN1C(=O)c2ccccc2NC1c1ccccc1` (stereo unspecified) here?
A: inconclusive [inhibitor, partial curve]

Q: For `CN(C)C(=O)c1cc(Cl)ccc1Sc1cc(Cl)ccc1Cl`, which Potency is on record?
A: inconclusive [inhibitor, partial curve]

Q: Which activity change, negative = inhibition does the source give for `O=C(c1cccc(F)c1)N1CCC2(CC1)CN(c1ccncc1)C2` here?
A: inactive: -4.04%

Q: For `CCOC(=O)OCC`, which activity change, negative = inhibition is on record?
A: inactive: -11.2%

Q: How did the Potency turn out when `Cc1ccc(-c2nnc(-c3ccc(NC(=O)c4cccs4)cc3)o2)cc1` was run?
A: inconclusive [inhibitor, partial curve]

Q: `CCOc1ccc(-c2ccc(C=O)o2)c([N+](=O)[O-])c1` was tested. Which Potency did it give?
A: inconclusive [inhibitor, single point]

Q: How did the Potency turn out when `C=C(C)COc1ccc2c(C)c(CC(=O)OC)c(=O)oc2c1C` was run?
A: inconclusive [inhibitor, partial curve]

Q: With `COc1cc2c(cc1OC)C(C)N(C(=O)c1cc3c(s1)-c1ccccc1OC3)CC2` (stereo unspecified) as the compound, how does the Potency read?
A: inconclusive [inhibitor, partial curve]

Q: For `CC(=O)N1c2ccccc2C2(O)N=C(C)SC12` (stereo unspecified), which Potency is on record?
A: inconclusive [inhibitor, full curve]

Q: `Fc1ccc(-c2nc3ccccc3c3nc4ccccc4n23)cc1` was tested. Which Potency did it give?
A: inconclusive [inhibitor, partial curve]

Q: `CCCCNC(=O)CN(c1ccc(Cl)c(Cl)c1)S(C)(=O)=O` was tested. Which Potency did it give?
A: inconclusive [inhibitor, single point]

Q: How did the activity change, negative = inhibition turn out when `BrC/C=C/CBr` was run?
A: inactive: -2.33%

Q: `COc1ccc(-c2cc(=O)oc3c(C)c(OCc4nn[nH]n4)ccc23)cc1` was tested. Which Potency did it give?
A: inconclusive [inhibitor, partial curve]

Q: With `O=C(Nc1nnc(COc2ccc(Cl)cc2)s1)c1cccs1` as the compound, how does the Potency read?
A: active: 25.1 µM

Q: `O=C(N/N=C/c1ccc(-c2ccccc2C(=O)O)o1)c1cccs1` was tested. Which Potency did it give?
A: inconclusive [inhibitor, partial curve]

Q: How did the Potency turn out when `Cc1nc(NCc2ccccc2)c2nc(-c3ccccc3)n(CCCN3CCCCC3C)c2n1` (stereo unspecified) was run?
A: inconclusive [inhibitor, partial curve]

Q: `O=C(COc1ccccc1Cl)Nc1cnn(Cc2ccccc2)c1` was tested. Which activity change, negative = inhibition did it give?
A: inactive: -19.6%

Q: For `c1ccc2c(c1)ncn2CCCOc1ccc2c(c1)CCC2`, which Potency is on record?
A: inconclusive [inhibitor, partial curve, poor fit]

Q: `CCN(CC)C(=O)c1ccc(C)c(Br)c1` was tested. Which Potency did it give?
A: active: 17.8 µM

Q: For `CC1=Nn2c(nc(-c3ccccc3)c2-c2ccccc2)N(CC(N)=O)C(=O)C1`, which activity change, negative = inhibition is on record?
A: inactive: -9.14%

Q: For `CCOc1c2ccc(C(=O)NCCCCc3ccccc3)cc2nn1CC`, which Potency is on record?
A: inconclusive [inhibitor, partial curve]

Q: How did the Potency turn out when `CCc1[nH]c(=O)c(C#N)c2c1CSC(C)(C)C2` was run?
A: inconclusive [inhibitor, partial curve]

Q: With `COc1ccc2c(c1)OC(=O)CC2c1ccc2c(c1)OCO2` (stereo unspecified) as the compound, how does the activity change, negative = inhibition read?
A: inactive: -5.53%

Q: `O=C(COC(=O)C1CCN(S(=O)(=O)c2cccs2)CC1)c1cc2ccccc2o1` was tested. Which Potency did it give?
A: inconclusive [inhibitor, full curve, poor fit]

Q: For `COc1ccc(S(=O)(=O)Nc2nnc(C)s2)cc1`, which Potency is on record?
A: active: 31.6 µM

Q: For `N#CC1=C(N)NC(SCC(=O)c2ccccc2)=C(C#N)C12CCCC2`, which Potency is on record?
A: inconclusive [inhibitor, partial curve, poor fit]

Q: `COC(=O)C(=Cc1cc(Br)c(OC)c(Br)c1)C(=O)OC` was tested. Which Potency did it give?
A: inconclusive [inhibitor, single point]

Q: How did the Potency turn out when `Cc1ccc(-c2nc(CS(=O)(=O)CC(=O)N3CC(C)CC(C)C3)c(C)o2)cc1` (stereo unspecified) was run?
A: inconclusive [inhibitor, partial curve]

Q: Which Potency does the source give for `CCOC(=O)CC(=O)CSc1ccc2nnc(-c3ccccc3)n2n1` here?
A: inconclusive [inhibitor, partial curve]

Q: Which Potency does the source give for `CC(C)(C)C(=O)c1cnc(Nc2ccccc2)s1` here?
A: inconclusive [inhibitor, partial curve]

Q: With `O=C1c2ccccc2C(=O)C1Cc1cccc2ccccc12` as the compound, how does the Potency read?
A: active: 14.1 µM

Q: `NC(=O)c1nsc(C(=O)N(CCc2ccccc2)C(C(=O)NC2CCCC2)c2ccco2)c1N` (stereo unspecified) was tested. Which activity change, negative = inhibition did it give?
A: inactive: -20.9%

Q: `C=CCn1c(SCCC(=O)O)nnc1-c1cccs1` was tested. Which activity change, negative = inhibition did it give?
A: inactive: -17.6%

Q: How did the Potency turn out when `CC1CCc2c(sc(NC(=O)COC(=O)c3ccccc3NCc3ccco3)c2C#N)C1` (stereo unspecified) was run?
A: inconclusive [inhibitor, partial curve]

Q: Which Potency does the source give for `N=c1c(C(=O)NCc2ccc(F)cc2)cc2c(=O)n3ccccc3nc2n1Cc1cccnc1` here?
A: inconclusive [inhibitor, partial curve]

Q: Which Potency does the source give for `N#C/C(=C\c1c[nH]c2ccccc12)C(=O)c1ccc(O)c(O)c1` here?
A: active: 3.55 µM

Q: Which Potency does the source give for `O=C(NCc1ccccc1)c1ccc2nc(-c3ccco3)c(-c3ccco3)nc2c1` here?
A: inconclusive [inhibitor, partial curve]

Q: `O=C(Nc1nc(-c2ccccc2)c(-c2ccccc2)s1)c1ccc(S(=O)(=O)N2CCCC2)cc1` was tested. Which Potency did it give?
A: inconclusive [inhibitor, single point]

Q: For `Cc1ccc(OCc2nnc(SCc3cc(=O)[nH]c4ccccc34)n2-c2ccccc2)cc1`, which Potency is on record?
A: active: 11.2 µM

Q: Which Potency does the source give for `COc1ccc(NC(=O)/C(C#N)=C\c2cc(C)n(-c3ccc(Oc4ccc([N+](=O)[O-])cn4)cc3)c2C)cc1` here?
A: active: 28.2 µM

Q: With `O=C(CCc1ccccc1)NCC(=O)N/N=C/c1ccc2c(c1)OCO2` as the compound, how does the activity change, negative = inhibition read?
A: inactive: -12.3%

Q: With `COc1ccc(N2C(=O)c3ccccc3NC23CCCCC3)cc1` as the compound, how does the Potency read?
A: inconclusive [inhibitor, partial curve]

Q: How did the activity change, negative = inhibition turn out when `O=C(COc1ccc(Cl)cc1)N1CCN(c2ccc([N+](=O)[O-])c(N3CCOCC3)c2)CC1` was run?
A: inactive: -10.1%

Q: For `COc1ccc(CCNC(=O)COc2ccc(-c3ccccc3)cc2)cc1OC`, which activity change, negative = inhibition is on record?
A: inactive: -9.23%

Q: Which Potency does the source give for `CCOC(=O)C1CCCN(C(=O)c2sc3nc(C)nc(N(CC)CC)c3c2C)C1` (stereo unspecified) here?
A: active: 14.1 µM

Q: `O=C(NC1CCCCC1)c1cnn2c(C(F)(F)F)cc(-c3ccco3)nc12` was tested. Which Potency did it give?
A: inconclusive [inhibitor, partial curve]

Q: Which activity change, negative = inhibition does the source give for `O=C(O)Cn1ccnc1[N+](=O)[O-]` here?
A: inactive: -3.04%

Q: With `CCOc1ccc2[nH]c(=O)c(CN(Cc3nnnn3Cc3ccccc3)CC3CCCO3)cc2c1` (stereo unspecified) as the compound, how does the Potency read?
A: inconclusive [inhibitor, partial curve]

Q: For `C=CCOc1ccccc1/C=N/O`, which Potency is on record?
A: active: 15.8 µM

Q: For `C=CCn1c(SCc2ccc(C(=O)Nc3ccccc3)cc2)nnc1-c1ccccc1`, which Potency is on record?
A: inconclusive [inhibitor, partial curve]

Q: How did the Potency turn out when `O=C(c1ccncc1)N1CCC2(CC1)CN(c1ncccn1)C2` was run?
A: inconclusive [inhibitor, partial curve]

Q: With `O=C(O)c1cc2c(s1)-c1ccccc1OC2` as the compound, how does the Potency read?
A: inconclusive [inhibitor, partial curve]

Q: `CC1=C(C(=O)Nc2ccc(F)cc2)C(c2ccncc2)C2=C(CCCC2=O)N1` (stereo unspecified) was tested. Which Potency did it give?
A: inconclusive [inhibitor, partial curve]

Q: For `CC(C)CC(=O)O/N=C1\C(=O)N(Cc2ccc(Cl)cc2)c2ccc([N+](=O)[O-])cc21`, which Potency is on record?
A: active: 14.1 µM

Q: `COCCn1cc(C(=O)N2CCC(C)CC2)c2c3ccccc3n(C)c2c1=O` was tested. Which Potency did it give?
A: inconclusive [inhibitor, partial curve]

Q: Which Potency does the source give for `CCC(=O)N1CCN(c2nc(C)nc3sc(C)c(C)c23)CC1` here?
A: inconclusive [inhibitor, single point]

Q: For `O=C(COC(=O)c1ccccc1Oc1ccccc1)NCc1ccco1`, which Potency is on record?
A: inconclusive [inhibitor, single point]

Q: For `CSc1nc2cc3c(cc2n1C(=O)c1ccc(C)cc1)OCCO3`, which Potency is on record?
A: inconclusive [inhibitor, single point]

Q: For `Cc1cc(C)nc(SCc2csc(-c3ccccc3)n2)n1`, which Potency is on record?
A: inconclusive [inhibitor, single point]

Q: With `COc1ccc(/C=N/NC(=O)C2C(=O)NCC2c2ccccc2)c(OC)c1` (stereo unspecified) as the compound, how does the activity change, negative = inhibition read?
A: inactive: -6.32%

Q: How did the Potency turn out when `CCCSC1=C(C#N)C(c2ccccc2C)CC(=O)N1` (stereo unspecified) was run?
A: inconclusive [inhibitor, single point]

Q: For `COc1cc(OC)c(C2=NOC(C(=O)N3CCc4ccccc4C3)C2)cc1Cl` (stereo unspecified), which Potency is on record?
A: active: 11.2 µM

Q: With `COC(=O)c1ccc(CSc2nc3cc(Cl)ccc3o2)cc1` as the compound, how does the activity change, negative = inhibition read?
A: inactive: -20.6%

Q: For `O=S(=O)(c1ccc(Oc2ccc(Cl)cc2)c(S(=O)(=O)N2CCCCC2)c1)N1CCCCC1`, which activity change, negative = inhibition is on record?
A: inactive: -8.46%

Q: Which Potency does the source give for `N#C/C(=C\c1ccc2c(c1)OCCO2)C(=O)NC1CCCCC1` here?
A: inconclusive [inhibitor, partial curve]

Q: With `Cc1nc2n(n1)C(c1ccccc1)C1=C(CC(c3ccco3)CC1=O)N2` (stereo unspecified) as the compound, how does the Potency read?
A: inconclusive [inhibitor, partial curve]

Q: `Cn1c(NC(=O)CCc2ccccc2)cc(=O)n(C)c1=O` was tested. Which activity change, negative = inhibition did it give?
A: inactive: -6.08%

Q: `Cc1cc(C)cc(Oc2nc(-c3ccccc3)cc(C)c2S(C)(=O)=O)c1` was tested. Which Potency did it give?
A: inconclusive [inhibitor, single point]
